US11365205B2 (Aurigene Discovery Technologies Limited, priority 2018, dated 2022)

These molecules were tested against PRMT5/MEP50 Complex (Homo sapiens (Human), UniProt O14744) (assay: PRMT5 inhibition based on TR-FRET assay). Conditions: 32 nM PRMT5:MEP50, 50 nM Histone-H4 peptide, 1 μM SAM.
Format: biochemical
Description: PRMT5 Inhibition Based on TR-FRET Assay:
Protein arginine methyltransferase 5 (PRMT5) is a type II arginine methyltransferase that catalyze mono- and symmetric demethylation on arginine residues of histone or non-histone proteins in presence of S-adenosylmethionine (AdoMet or SAM) a cofactor responsible for donating the methyl group. PRMT5 is reported to be overexpressed in several human cancers. To identify compounds that inhibit the PRMT5 and decrease its activity, a TR-FRET based assay has been established. Time-resolved fluorescence resonance energy transfer (TR-FRET) HTS assays are homogeneous proximity assays where the interaction of two dye-labeled binding partners is detected by the energy transfer between a donor and an acceptor dye and the subsequent light emission by the acceptor dye. PRMT5 catalyzes Histone H4 peptide which is biotin tagged to the Lysine amino acid at carboxyl end, in presence of S-adenosyl-1-methionine (SAM) to methylate the peptide. The antibody specific to mono methylated H4 peptide (H4R3) with Ig conjugate binds to the methylated peptide, indirectly binding to the Europium lanthanide. SureLight Allophycocyanin-Streptavidin binds to the biotin tag of the peptide, therefore accepting the energy transferred from the Europium lanthanide. This energy transfer between Europium to SureLight Allophycocyanin is a direct measure of the activity/inhibition of the PRMT5 enzyme.
Assay buffer: 20 mM BICINE (pH 7.6), 25 mM NaCl, 2 mM DTT, 0.01% Tween-20 and 0.01% BSA.
The compound dilutions were prepared as 7.5% DMSO stock solutions in assay buffer. To 2 μL (7.5×) of test compound, 5 μL of PRMT5 enzyme prepared in assay buffer (Final concentration of 32 nM in 15 μL reaction volume) was added and allowed for 30 minutes pre-incubation time in a white polystyrene 384-well plate at room temperature. […] The plates were then read on Victor-3 with Excitation at 340 nm and Emissions collected at 615 and 665 nm in TR-FRET protocol. […]

Chain of UniProt O14744 (O14744 whole entry): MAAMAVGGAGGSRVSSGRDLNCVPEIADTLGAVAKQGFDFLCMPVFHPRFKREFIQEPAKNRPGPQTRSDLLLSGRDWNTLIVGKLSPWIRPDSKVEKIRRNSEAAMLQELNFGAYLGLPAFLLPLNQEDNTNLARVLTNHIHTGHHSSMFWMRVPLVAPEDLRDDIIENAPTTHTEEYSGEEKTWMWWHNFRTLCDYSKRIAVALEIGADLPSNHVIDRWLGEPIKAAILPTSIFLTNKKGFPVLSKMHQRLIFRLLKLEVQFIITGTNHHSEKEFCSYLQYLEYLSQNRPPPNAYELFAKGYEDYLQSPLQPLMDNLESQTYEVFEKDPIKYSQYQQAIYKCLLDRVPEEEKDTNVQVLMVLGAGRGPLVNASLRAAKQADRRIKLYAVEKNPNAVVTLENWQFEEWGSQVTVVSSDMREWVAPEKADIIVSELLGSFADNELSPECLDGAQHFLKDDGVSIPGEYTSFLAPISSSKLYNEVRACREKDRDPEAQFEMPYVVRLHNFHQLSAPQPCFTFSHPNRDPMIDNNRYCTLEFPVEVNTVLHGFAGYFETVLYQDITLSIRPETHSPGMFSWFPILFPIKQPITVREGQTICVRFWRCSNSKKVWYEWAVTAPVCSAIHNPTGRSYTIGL
Chain of UniProt O14744 (Q9BQA1 whole entry partner): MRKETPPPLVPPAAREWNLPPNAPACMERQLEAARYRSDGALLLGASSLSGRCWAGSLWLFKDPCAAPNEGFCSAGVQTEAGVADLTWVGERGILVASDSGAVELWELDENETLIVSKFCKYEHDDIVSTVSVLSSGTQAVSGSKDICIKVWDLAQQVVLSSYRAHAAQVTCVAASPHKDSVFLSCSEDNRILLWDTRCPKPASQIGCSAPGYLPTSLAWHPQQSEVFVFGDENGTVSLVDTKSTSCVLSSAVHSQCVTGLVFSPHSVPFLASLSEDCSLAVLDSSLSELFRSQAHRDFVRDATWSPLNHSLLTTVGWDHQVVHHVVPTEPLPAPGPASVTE

Row | IC50 [nM] | Structure (SMILES)
1 | 230 | Cc1ccc(CN2CC3(CCC3)N(CC(O)CN3CCc4ccccc4C3)C2=O)cn1 (stereo not drawn) [Example 9, 5-(3-(3,4-dihydroisoquinolin-2(1H)-yl)-2-hydroxypropyl)-7-((6-methylpyridin-3-yl)methyl)-5,7-diazaspiro[3.4]octan-6-one]
2 | 5460 | CC(=O)N1CCN(C(=O)c2cc(C#N)cnc2CN2CCN(C[C@H](O)CN3CCc4ccccc4C3)C2=O)CC1 [Example 103]
3 | 70 | O=C(Nc1ccc(CN2CCN(C[C@H](O)CN3CCc4ccccc4C3)C2=O)nc1)C1CCC1 [Example 106, (R)-N-(6-((3-(3-(3,4-dihydroisoquinolin-2(1H)-yl)-2-hydroxypropyl)-2-oxoimidazolidin-1-yl)methyl)pyridin-3-yl)cyclobutanecarboxamide]
